Here are results for 42 sequences from paper PMC7819943, “Rice protein-binding microarrays: a tool to detect cis-acting elements near promoter regions in rice”.

Some of the results follow.

The target in the assay is T1, OsWOX13 (Oryza sativa, UniProt Q5QMM3 1-267).
T1 sequence: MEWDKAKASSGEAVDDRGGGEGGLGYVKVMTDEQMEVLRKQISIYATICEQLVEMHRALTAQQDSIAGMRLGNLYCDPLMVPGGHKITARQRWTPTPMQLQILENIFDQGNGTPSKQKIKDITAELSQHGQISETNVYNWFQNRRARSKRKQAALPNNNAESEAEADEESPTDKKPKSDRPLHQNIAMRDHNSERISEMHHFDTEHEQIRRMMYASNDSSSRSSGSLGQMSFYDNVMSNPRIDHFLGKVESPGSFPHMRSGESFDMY
The assay can be described thus: protein-binding microarray (RPBM); PBS, 2% BSA, 51.3 ng/ul salmon testes DNA, 50 uM zinc acetate, 200 nM TF, 25 C, 1 h; high values mean tight binding. The note with it: protein: recombinant; tags: N-terminal polyhistidine and DsRed monomer fusion (pET32a); label: CyDye5-dUTP incorporated in the synthesized complementary strand; 3' TTTTT single-stranded linker to array surface; dsDNA, one strand shown. The procedure, abridged:
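For the binding signal, per-feature fluorescence intensity was read in arbitrary units on an Axon 4000B scanner. Before scanning, a 2% BSA-blocked custom Agilent array made double-stranded with Cy5-dUTP was washed after 1 h at 25 °C with 200 nM protein and 50 µM zinc acetate. The proteins were Ni–NTA-purified transcription factors with N-terminal polyhistidine and DsRed fusions, expressed in E. coli BL21-CodonPlus.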
In the case of “TGGTGCTTTTGTTATTGATGGAACAGTGGAAGATGGTGCTCGGAGTCACCTAGTGCAG”, the binding signal is 3380 fluorescence intensity (a.u.).
As to “TGAGTTGTGATATATTAATTGAGTTTGGGCAGGCATGGCCCGGAGTCACCTAGTGCAG”, the binding signal is 7790 fluorescence intensity (a.u.).
With “TTAAATTATATAAATTTATAGAAATTCATGATCAAAGATTCGGAGTCACCTAGTGCAG”, the binding signal is 22400 fluorescence intensity (a.u.).
For “CCATTAATTAAGAGTACCATATATATATATATATACAGTGCGGAGTCACCTAGTGCAG”, the binding signal was 18600 fluorescence intensity (a.u.).
Take “CTATAATTATGATGTGGCTTTATGAGAGAAGATAAATTAGCGGAGTCACCTAGTGCAG”: the binding signal was 23500 fluorescence intensity (a.u.).
Regarding “GCCTTGCAGGATTGGCCAATTTAATTTATGGGCCTTCCACCGGAGTCACCTAGTGCAG”, the binding signal is 16600 fluorescence intensity (a.u.).
Consider “TTTGATTTGGAGGAAGAGGAGAGGGTGGTGTTAGGTGAAACGGAGTCACCTAGTGCAG”, for which the binding signal was 12400 fluorescence intensity (a.u.).
For “ACGAGTACTACTGTGATTAGAAATCTCGGCCCATAGAAAGCGGAGTCACCTAGTGCAG”, the binding signal was 3430 fluorescence intensity (a.u.).
As to “CATAAGTGATGATCACATCCAAGCTGCCATGGCCAATTGCCGGAGTCACCTAGTGCAG”, the binding signal was 5540 fluorescence intensity (a.u.).
Regarding “ATCCAATCTATGCTAAATGGACTAGGGTTTTACCTCACTCCGGAGTCACCTAGTGCAG”, the binding signal is 12000 fluorescence intensity (a.u.).
With “AGTTAATACAGCTGATTAGCAATGCAGCTTAACCAAAGTACGGAGTCACCTAGTGCAG”, the binding signal was 10500 fluorescence intensity (a.u.).
For “TATGATTTGCGGTCATTGGCAAAGTTGACTTTATTACTAACGGAGTCACCTAGTGCAG”, the binding signal was 36600 fluorescence intensity (a.u.).
For “CGATGACATTAAAATTAAATTTTAGGTAAAATATTATATTCGGAGTCACCTAGTGCAG” the value was 9200 fluorescence intensity (a.u.); for “CTAAAAGTAATTTATATATATGATAAAAGTAACTTAAGTACGGAGTCACCTAGTGCAG”, 4920 fluorescence intensity (a.u.).
The value for “TAAATCAGTTTGACTTTGATTAAACTCAAAACGTCTTATACGGAGTCACCTAGTGCAG” was 11300 fluorescence intensity (a.u.).
As for “ATAATCATAATTATATTTTAAAGTTCAACATGTAAGCATGCGGAGTCACCTAGTGCAG”, the binding signal was 26500 fluorescence intensity (a.u.).
Consider “TACTGAAATAATTATTGAACGTAGAAATTTTGGATCTGTTCGGAGTCACCTAGTGCAG”, for which the binding signal was 10400 fluorescence intensity (a.u.).
Regarding “TACTCTAAATTGGATAGACATTTCTTACAGTGTACCGACACGGAGTCACCTAGTGCAG”, the binding signal is 24100 fluorescence intensity (a.u.).
On to “TATTAAACGAATTATCACAAAATTATAGATTTATCATGTTCGGAGTCACCTAGTGCAG”, for which the binding signal was 3760 fluorescence intensity (a.u.).
“GTAAATTGCAAGACAAATCTTTTAAACCTAGTTGTGTCATCGGAGTCACCTAGTGCAG”: the binding signal was 20500 fluorescence intensity (a.u.).
For “ACCTGGATTGAGTTTTGTGCATGAATTTGAGTGGTAAGGGCGGAGTCACCTAGTGCAG” the value was 4600 fluorescence intensity (a.u.); for “ATGATAATTAAAGTTGTAGGTGGTATGACCTTAATTAGTTCGGAGTCACCTAGTGCAG”, 16900 fluorescence intensity (a.u.).
For the sequence “TCTAATTGCAGACATGCTTGGCTTCATGCATTGAACAGGTCGGAGTCACCTAGTGCAG”, the binding signal is 20300 fluorescence intensity (a.u.).
On to “GTCCAAACTTTGACATCTCAATCTTCACCGAAACAGCAAACGGAGTCACCTAGTGCAG”, for which the binding signal is 3860 fluorescence intensity (a.u.).
Take “ATTGCATGCAACTAATTGAGACTTCCTTTGAAATGGGGTGCGGAGTCACCTAGTGCAG”: the binding signal is 7120 fluorescence intensity (a.u.).
“AACAGTTGAATGACTAATTATACCCGGTTTTATATGGATGCGGAGTCACCTAGTGCAG”: the binding signal is 14800 fluorescence intensity (a.u.).
For “ATTTTGGTTGATTTGTAAACAGAGGGATTAATTTGTGCATCGGAGTCACCTAGTGCAG” the value was 15400 fluorescence intensity (a.u.); for “ATTTTGATGATCAGCGGTCTAGATTTACCGCTACAATGATCGGAGTCACCTAGTGCAG”, 3930 fluorescence intensity (a.u.); for “ATGTTTGATTTTAAAATCTCAATGACAATAAAGAAGGGTGCGGAGTCACCTAGTGCAG”, 9130 fluorescence intensity (a.u.).
As to “TTTGATTTGACACTTGTTTTGTATCATCTATAGGCATAGGCGGAGTCACCTAGTGCAG”, the binding signal was 36300 fluorescence intensity (a.u.).
Regarding “CGATGTTAAATTGTTAATCTACCAGCAGCTCCAAATTCAACGGAGTCACCTAGTGCAG”, the binding signal was 3510 fluorescence intensity (a.u.).
For the sequence “TAAATTGAGGGATGACATATATCTTGTTTTACGGTTGGGGCGGAGTCACCTAGTGCAG”, the binding signal is 13500 fluorescence intensity (a.u.).
The value for “TCAACTAACAATAATTACATATTTAATCGTAGAAGCATACCGGAGTCACCTAGTGCAG” was 8390 fluorescence intensity (a.u.); that for “TTACTATATGATTAAGATTTTGTTATGAAATTGGCAGCTTCGGAGTCACCTAGTGCAG” was 8420 fluorescence intensity (a.u.); that for “CAGCATTTGTGATTGGGTAGTATGGGTTGCTCGATCTTTCCGGAGTCACCTAGTGCAG” was 15000 fluorescence intensity (a.u.).
On to “AGATGGATTGAAAATAATGTGAATAAATATACATGAAATCCGGAGTCACCTAGTGCAG”, for which the binding signal was 7890 fluorescence intensity (a.u.).
As for “AATAATAATTATAAAATTACTTAAAATAAGATGGATAATCCGGAGTCACCTAGTGCAG”, the binding signal is 23700 fluorescence intensity (a.u.).
With “GATGTATAATTTGTCCTGCATTTTCTGAAGGGATTCGTGGCGGAGTCACCTAGTGCAG”, the binding signal was 5310 fluorescence intensity (a.u.).
Turning to “TTGCAATTGCTGATTGTACATCTGAAATGGTTTCCTTTTGCGGAGTCACCTAGTGCAG”, the binding signal is 14000 fluorescence intensity (a.u.).
With “ATAATGAAATTTCATAGGGGAGGGGCTGGGCTTTATAGGGCGGAGTCACCTAGTGCAG”, the binding signal is 4610 fluorescence intensity (a.u.).
The value for “CAAGAAATGACTTAATTAGAAAACCTCTTTGGAGCACCCACGGAGTCACCTAGTGCAG” was 11000 fluorescence intensity (a.u.).
For the sequence “ATGCGAGCATAATTAATTGAGTTTTAATTATTTCAAACTTCGGAGTCACCTAGTGCAG”, the binding signal is 14100 fluorescence intensity (a.u.).
